# According to article PMC6919601, “Identification of Plasmodium dipeptidyl aminopeptidase allosteric inhibitors by high throughput screening” (PLoS ONE, 2019):
# “And” between values parts separate entries of the source, which are not always exact repeats. Identical values can stand only once. The whole screen tested about 110,000 compounds, of which about 230 (0.21%) showed an effect of 50% or more. The list shows a part of the results.
# Biological target: DPAP1 (Plasmodium falciparum, UniProt Q8IIJ9)
# Assay: primary screen, percent inhibition; read by cleavage of a fluorogenic dipeptide substrate; higher = more effect of the substance
# Set-up: species or system P. falciparum D10 trophozoite lysates; single well
# 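Note: 30 min substrate incubation versus DMSO and 10 µM JCP410 controls.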
# Sequence of DPAP1 (Q8IIJ9 whole entry, looked up): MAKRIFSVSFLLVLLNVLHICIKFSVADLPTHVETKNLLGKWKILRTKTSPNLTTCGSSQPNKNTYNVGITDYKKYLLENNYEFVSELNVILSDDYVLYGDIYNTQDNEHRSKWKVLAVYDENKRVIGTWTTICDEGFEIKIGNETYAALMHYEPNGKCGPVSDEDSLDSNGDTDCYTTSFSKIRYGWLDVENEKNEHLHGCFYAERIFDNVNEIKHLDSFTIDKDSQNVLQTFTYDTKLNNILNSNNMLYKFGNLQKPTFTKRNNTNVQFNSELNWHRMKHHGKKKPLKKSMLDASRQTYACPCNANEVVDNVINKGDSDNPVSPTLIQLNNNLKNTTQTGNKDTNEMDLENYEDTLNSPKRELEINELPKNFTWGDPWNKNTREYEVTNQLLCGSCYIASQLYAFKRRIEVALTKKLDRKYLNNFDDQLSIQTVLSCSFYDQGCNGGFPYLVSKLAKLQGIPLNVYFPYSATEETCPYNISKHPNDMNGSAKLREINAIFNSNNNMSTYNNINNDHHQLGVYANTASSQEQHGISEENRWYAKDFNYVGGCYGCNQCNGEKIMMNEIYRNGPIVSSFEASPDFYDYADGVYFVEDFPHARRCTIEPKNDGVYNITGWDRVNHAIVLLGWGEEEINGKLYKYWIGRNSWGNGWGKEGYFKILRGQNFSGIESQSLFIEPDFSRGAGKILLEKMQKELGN
row,SMILES,% Inhibition @ 10 uM
1,Cc1onc(-c2ccccc2)c1C(=O)N1CCN(c2ccc(Cl)cc2)CC1,6.06%
2,CC1(C)[C@H]2CC=C(CN(CCO)CCO)[C@@H]1C2,-5.65%
3,C=CCNc1ncnc2sc(C)c(C)c12,-2.72%
4,Cc1ccc(NC(=O)c2c(-c3ccccc3)noc2C)nc1,5.42%
5,COCCCN(Cc1ccco1)C(=O)CSc1nc2cccnc2[nH]1,-0.0309%
6,O=C(NCc1ccco1)c1ccc(CN2CC(=O)N3CCCCC3C2=O)cc1 (stereo not drawn),3.7%
7,CC1CCc2c(C(=O)NCCCSC3CCCCC3)csc2C1 (stereo not drawn),-1.44%
8,COc1cc(/C=C2\NC(=O)NC2=O)cc(OC)c1OC,1.88%
9,Cc1nc2cc(NC(=O)N3CCC(c4ccccc4)C3)ccc2n1C (stereo not drawn),-4.39%
10,Cc1ccc2c(c1)c1c(c(=O)n(Cc3ccccc3)c(=O)n1C)n2C,7.06%
11,COc1ccc(/C=C2/C(=O)N(c3ccc([N+](=O)[O-])cc3)N=C2C)cc1OC,-6.52%
12,N#CCCN1CCN(c2ccc(F)cc2)CC1,3.8%
13,O=C(NCC(c1ccccc1)c1ccccc1)Nc1ccc(Cl)c(Cl)c1,-9.55%
14,C=CCn1c(SCC(=O)NCCc2ccccc2)nc2c1c(=O)n(C)c(=O)n2C,-4.49%
15,CCOc1ccc(NS(=O)(=O)c2ccc(NC(=O)c3ccccc3Br)cc2)cc1,4.57%
16,Cc1ccc(C)c(Cn2c(CCNC(=O)C(C)C)nc3ccccc32)c1,-3.52%
17,O=C(c1ccccc1)c1ccc(NC(=O)C2CCCC2)cc1,-2.74%
18,COc1ccc(NS(=O)(=O)c2ccc(NC(=O)COc3cccc4ccccc34)cc2)cc1,-2.28%
19,COc1cccc(/C=C2\N=C(c3ccc(F)cc3)OC2=O)c1,-7.16%
20,CCCCOc1ccc(C(=O)NCCc2csc3nc(-c4ccc(OC)cc4)nn23)cc1,2.59%
21,CN(Cc1ccco1)C(=O)c1cc2c(Cl)nc3ccccc3c2s1,1.66%
22,Cc1cc(O)c(C2=NCCSC(c3cccnc3)C2)c(=O)o1 (stereo not drawn),4.89%
23,Cc1cccc(NC(=O)CN2C(=O)N/C(=C\c3ccc(-c4cccc(C(=O)O)c4)o3)C2=O)c1,2.86%
24,CSc1nn(Cc2ccccc2)c(NC(C)=O)c1S(=O)(=O)c1ccccc1,-4.17%
25,CCc1nnc(NS(=O)(=O)c2ccc(NC(=S)NC(=O)c3ccco3)cc2)s1,6.3%

row,SMILES,% Inhibition @ 10 uM
1,Cc1nn(CCO)c2c1[C@H]1[C@@H](C2)C1(C)C,4.32%
2,Cc1ccc(-c2csc3ncnc(Cl)c23)cc1,5.63%
3,COc1ccc(/C=N/c2nc3ccccc3n2Cc2ccccc2)cc1OC,22.5%
4,CCS(=O)(=O)c1nc(S(=O)(=O)c2ccc(C)cc2)c(NCc2ccccc2OC)s1,-2.25%
5,OCC1CCCN1Cc1cccc2ccccc12 (stereo not drawn),-7.18%
6,Cc1ccccc1C1=N/C(=C/c2ccccc2F)C(=O)O1,1.25%
7,Cc1ccc(C(C)NC(=O)Nc2ccccc2)cc1 (stereo not drawn),0.968%
8,O=C(c1ccccc1)N1CCN(CCN2C(=O)c3cccc4cccc(c34)C2=O)CC1,7.74%
9,Cn1cnc2nc(SCC(=O)O)nc(N)c21,-10.8%
10,Cc1ccc(/C=C(\NC(=O)c2ccccc2)C(=O)NCc2ccccc2C(F)(F)F)o1,5.67%
11,Cc1ccc(-n2nc(C)c(/C=N/c3c(C)nn(C)c3C)c2O)c(C)c1,-1.84%
12,Cc1csc(NC(=O)CCc2nnc3ccc(N4CCC(C)CC4)nn23)n1,-2.26%
13,CCOC(=O)NC1(C(F)(F)F)C(=O)NC(C)=C1C(=O)OC (stereo not drawn),0.221%
14,Cc1ccccc1CNCC1CCCO1 (stereo not drawn),-1.38%
15,CCC(=O)Nc1ccc(S(=O)(=O)NC2CCCCC2)cc1,-3.49%
16,CCOC(=O)N1CCN(C(=O)c2ccc(CS(=O)Cc3ccc(C)cc3)o2)CC1 (stereo not drawn),-7.62%
17,O=C(Nc1ccccc1[N+](=O)[O-])C(c1ccccc1)c1ccccc1,1.38%
18,Cc1nn(C(=O)CCC(=O)NC2CCCc3ccccc32)c2ccccc12 (stereo not drawn),-6.6%
19,O=[N+]([O-])c1ccc(Nc2ccc(Cl)c(C(F)(F)F)c2)c2nonc12,-0.856%
20,CCOC(=O)N1CCN(C(=O)COc2ccc(S(=O)(=O)NC(C)C)cc2)CC1,0.64%
21,CCCCCCOc1ccccc1/C=c1/sc2nc(=O)c(C)nn2c1=O,-3.33%
22,CCC(Sc1nc2ccccc2c2nc3ccccc3n12)C(=O)NCc1ccco1 (stereo not drawn),-2.56%
23,Cc1nn(Cc2ccc(F)cc2)c(C)c1NC(=O)c1c(-c2ccccc2)noc1C,-0.884% and -2.07%
24,COc1ccc(-c2csc(/C(C#N)=C/c3ccc(Br)o3)n2)cc1,0.912%
25,CC1CCN(C(=O)c2cc(-c3ccco3)on2)CC1,-1.84%

row,SMILES,% Inhibition @ 10 uM
1,COc1cccc(C(=O)Nc2cccc(-c3csc(C)n3)c2)c1,3.41%
2,COc1cccc(C2C3=C(O)CC(C)(C)CC3=NC(C)=C2C(=O)Nc2ccc(Br)cn2)c1 (stereo not drawn),1.4%
3,Cc1oc2c(c(C)cc3oc(=O)cc(C)c32)c1-c1ccccc1,-2.92%
4,COc1ccc(/C=C(\C#N)c2nc(-c3ccc(F)cc3)cs2)cc1,3.83%
5,Cc1ccc(/C=C2\C(=N)N3N=C(N4CCC(C)CC4)SC3=NC2=O)cc1,3.32%
6,O=C(c1cc(-c2ccc(O)cc2)on1)N1CCN(C(c2ccccc2)c2ccccc2)CC1,2.65%
7,COCCn1c(-c2ccc(F)cc2)cnc1NCc1ccccc1,2.31%
8,Cc1nn(C)cc1CNC(=O)c1cnn2c(C(F)(F)F)cc(-c3ccc(Br)cc3)nc12,-3.87%
9,CC(C)c1ccc(C(=O)CN(C)C)cc1,0.135%
10,O=C(Nc1ccc(Cl)cc1)N1CCCCCC1,-3.23%
11,Cc1cccc(NC(=O)COc2ccc(Cl)cc2)n1,16.8%
12,CC1=C(C#N)C(=O)N(CC(C)O)C(=O)/C1=C/c1ccc(-c2ccc(C(=O)OC(C)C)cc2)o1 (stereo not drawn),0.884%
13,Cc1cccc2c1-c1sc(C(=O)NC3CCN(Cc4ccccc4)CC3)cc1CO2,1.89%
14,COC(=O)c1cc(O)c2c(-c3ccccc3)nc(C)nc2n1,3.25%
15,Cc1cccc(Oc2nc3c(C)cccn3c(=O)c2/C=C(\C#N)C(=O)NCc2ccccc2)c1C,0.101%
16,CCCCCC(=O)Nc1ccc(OC)c(OC)c1,5.9%
17,CCOC(=O)c1cc(-c2ccc(F)cc2)n(CC(=O)NCc2cccnc2)c1C,-3.64%
18,Cc1onc(-c2ccccc2)c1C(=O)Nc1ccc(S(N)(=O)=O)cc1,1.15%
19,CC(C)CN(CCNC(=O)[C@H](CC1CCCCC1)NC(=O)OC(C)(C)C)CC(C)C,-1.83%
20,COc1ccc(C2=NC(=O)OC2(C)C)cc1OC,-0.0619%
21,COc1ccccc1N1CCN(C(=O)/C(=C/c2ccccc2)NC(=O)c2ccccc2)CC1,4.09%
22,Cc1ccc(C(C(=O)NC2CCCCC2)N(C)C)cc1 (stereo not drawn),-2.04%
23,OC1CCCN(C2C3CC4CC(C3)CC2C4)C1 (stereo not drawn),3.48%
24,COc1cc2c(cc1OC)CN(C)CCc1cc3c(cc1C(=O)C2)OCO3,-1.66%
25,O=C1CC(c2ccc(F)cc2)Cc2nc(N3CCOCC3)ncc21 (stereo not drawn),3.53%

row,SMILES,% Inhibition @ 10 uM
1,O=C(CCn1ccc2cc(S(=O)(=O)N3CCCC3)ccc21)NC1CCN(Cc2ccccc2)CC1,-4.19%
2,CCCOc1ccc(N2C(=O)CC(N3CCN(c4ccccc4)CC3)C2=O)cc1 (stereo not drawn),-1.38%
3,N#Cc1sc2nc3c(cc2c1N)CCCCC3,2.08%
4,CCOP(=O)(/C(=C(\NC(=O)c1ccccc1)C(=O)O)c1ccccc1)c1ccccc1 (stereo not drawn),-2.59%
5,Cc1cc(C)c2c(n1)SCC(=O)N2CC(=O)NCc1ccccc1C,-4.15%
6,CC(=O)N1CCN(Cc2cc(F)ccc2F)CC1,-1.75%
7,N#Cc1c(-c2ccc(O)cc2)c(C#N)c2nc3ccccc3n2c1N,4.42%
8,CC(=O)N1CCC2(CC1)OC(=O)C(C)=C2C(=O)NCCCc1ccccc1,-4.67%
9,COCC(C)NC(C)Cc1ccccc1F (stereo not drawn),-0.505%
10,CC(C)CNC(=O)c1cc(-c2ccco2)nc2ccccc12,4.83%
11,Cc1cncn1CCc1nc2c3ccccc3nc(SCC(=O)c3ccc(F)cc3)n2n1,4.31%
12,COc1cc(/C=C2/NC(=O)N(Cc3ccccc3)C2=O)cc(Cl)c1OC,-14.4%
13,CCOc1ccc(CNS(=O)(=O)c2c(C)nc3scc(C)n3c2=O)cc1OC,4.61%
14,COc1ccc(Br)cc1C1CC(=O)NC2=C1C(=O)CCC2 (stereo not drawn),6.91%
15,CN(C)c1cc[n+](CN2C(=O)c3ccccc3C2=O)cc1,-0.725%
16,CCCOc1ccc(C(O)CCNC(CC(C)C)C(=O)O)cc1 (stereo not drawn),2.01%
17,N#CCCN(C1CCCCC1)S(=O)(=O)c1cccc2nsnc12,3.32%
18,Cc1ccc(S(=O)(=O)c2nnn3c2nc(NC(C)C)c2sccc23)cc1C,4.58%
19,Cn1ncc2c(N3CCN(C(c4ccccc4)c4ccccc4)CC3)ncnc21,-1.79%
20,CCOc1cc2sc(N3CCC(C(=O)NCCCOC(C)C)CC3)nc2cc1Br,47.4%
21,COc1cc2nc(SCC(=O)N(C)C3CCCCC3)n3nc(C)nc3c2cc1OC,4.51%
22,C=CCN1C=CC(=Cc2sc3ccccc3[n+]2CC)C=C1,-2.91%
23,c1cncc(-c2nn3c(C4COc5ccccc5O4)nnc3s2)c1 (stereo not drawn),2.89%
24,CC(C)[C@@H](NC(=O)OCc1ccccc1)C(=O)OCC#N,-6.56%
